Laboratory results as given in PMC12517274.
Changes are numbered by the printed parent chain. No constants are given. Whether binding was seen depends on the method and setting. Binding seen in cells or lysates may run through a third protein. Some binding calls cover weakened binding; strength is not graded here. For some of these results: Tags and fused reporters may be left off the sequences shown.

Key:
[1] = biological target: T1, WT RIPK1 reconstituted in RIPK1 KO MEFs (mouse) (UniProt Q60855); assay: co-IP; MEFs (reconstituted with WT or R606K RIPK1, or siNC/siAdk) stimulated by Flag-TNFα (10 ng/ml) after 5z7 (500 nM) for 30 min; RIPK1 immunoprecipitated; FADD and TRADD by immunoblotting
T1 sequence: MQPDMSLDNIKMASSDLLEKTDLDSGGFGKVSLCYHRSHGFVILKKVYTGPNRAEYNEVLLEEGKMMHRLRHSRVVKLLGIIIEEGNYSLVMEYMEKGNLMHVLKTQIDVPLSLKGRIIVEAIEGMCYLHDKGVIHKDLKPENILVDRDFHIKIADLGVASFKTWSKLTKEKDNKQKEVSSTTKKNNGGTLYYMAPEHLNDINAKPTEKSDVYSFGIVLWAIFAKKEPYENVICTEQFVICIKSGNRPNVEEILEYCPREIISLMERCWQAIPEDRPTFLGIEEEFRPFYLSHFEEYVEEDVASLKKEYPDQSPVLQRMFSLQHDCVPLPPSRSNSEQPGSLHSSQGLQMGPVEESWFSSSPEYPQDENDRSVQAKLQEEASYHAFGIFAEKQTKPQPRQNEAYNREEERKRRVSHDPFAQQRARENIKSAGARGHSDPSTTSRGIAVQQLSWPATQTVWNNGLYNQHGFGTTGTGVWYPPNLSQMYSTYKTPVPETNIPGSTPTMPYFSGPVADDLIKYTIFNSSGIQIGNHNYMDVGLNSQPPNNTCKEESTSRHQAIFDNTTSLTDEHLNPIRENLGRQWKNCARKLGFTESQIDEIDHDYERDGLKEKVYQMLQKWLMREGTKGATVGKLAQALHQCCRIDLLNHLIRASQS

[2] = biological target: T2, R606K mutant RIPK1 reconstituted in RIPK1 KO MEFs (mouse) (UniProt Q60855); assay: as above
T2 sequence: T1 sequence with R606K

[3] = biological target: T3, receptor-interacting serine/threonine kinase 1 (RIPK1), endogenous in MEFs (mouse (endogenous in MEFs)) (UniProt Q60855); assay: as above
T3 sequence: T1 sequence

[4] = biological target: T1, WT RIPK1 reconstituted in RIPK1 KO MEFs (mouse); assay: condition: only with Nec-1s (RIPK1 kinase inhibitor); co-IP; as a5 (TNFα/5z7-induced RDA in MEFs, RIPK1 immunoprecipitated), cells treated with the RIPK1 kinase inhibitor Nec-1s
[5] = biological target: T3, receptor-interacting serine/threonine kinase 1 (RIPK1), endogenous in MEFs (mouse (endogenous in MEFs)); assay: as above
[6] = biological target: T4, full-length RIPK1 R606K expressed in HEK293T cells (Flag-tagged RIPK1-R606K and HA-tagged RIPK1-R606K) (mouse) (UniProt Q60855); assay: co-IP; HEK293T cells cotransfected with Flag-tagged and HA-tagged expression plasmids for 24 h; some cells treated with DZNep (10 μM), siADK or adenosine (1 mM); immunoprecipitation and immunoblotting (0.5% Nonidet P-40 buffer in Fig. 4 I)
T4 sequence: T1 sequence with R606K

[7] = biological target: T5, full-length RIPK1 expressed in HEK293T cells (Flag-tagged RIPK1 and HA-tagged RIPK1) (mouse) (UniProt Q60855); assay: as above
T5 sequence: T1 sequence

[8] = biological target: RIPK3, endogenous in MEFs (mouse (endogenous in MEFs)), Q9QZL0; assay: co-IP; necrosome: MEFs with siNC or siAdk, CHX (2 μg/ml) and zVAD.fmk (10 μM) for 0.5 h, then TNFα 10 ng/ml; RIPK3 immunoprecipitated, RIPK1 by immunoblotting; conditions: remark: other sources report otherwise
[9] = biological target: RIPK1 death domain (Flag-tagged RIPK1-DD and HA-tagged RIPK1-DD) (mouse) (UniProt Q60855); assay: co-IP; HEK293T cells cotransfected with Flag-tagged and HA-tagged expression plasmids for 24 h; some cells treated with DZNep (10 μM), siADK or adenosine (1 mM); immunoprecipitation and immunoblotting (0.5% Nonidet P-40 buffer in Fig. 4 I)

B1: TRADD, endogenous in MEFs (protein, UniProt Q3U0V2 1-310)
chain: MAAGQNGHEEWVGSAYLFLESAVDKVILSEAYTDPKKKVAIYKALQTALSESGDSSDVLQILKIHCSDPQLIVQLRFCGRVLCGRFLQAYREGALRTALQRCMAPALAQEALRLQLELRAGAEQLDSWLTDEERCLNYILAQKPDRLRDEELAELEDELCKLTCDCTGQGGAIQVASAGSKFPVSSPTEEKPLPAACQTFLFHGQLVVNRPLTLQDQQTFARSVGLKWRRVGRSLQRNCRALRDPALDSLAYEYERDGLYEQAFQLLRRFMQAEGRRATLQRLVEALEENELTSLAEDLLGQAEPDGGLA
binding [1]: binds
binding [2]: binds
binding [3]: binds
binding [4]: no binding
binding [5]: no binding

B2: HA-tagged TRADD (protein, UniProt Q3U0V2 1-310)
chain: B1 chain
binding [6]: binds
binding [7]: binds

B3: receptor-interacting serine/threonine kinase 1 (RIPK1), endogenous in MEFs, Q60855 1-656 (protein)
chain: T1 sequence
binding [8]: binds

B4: FADD, endogenous in MEFs (protein, UniProt Q61160 1-205)
chain: MDPFLVLLHSLSGSLSGNDLMELKFLCRERVSKRKLERVQSGLDLFTVLLEQNDLERGHTGLLRELLASLRRHDLLQRLDDFEAGTATAAPPGEADLQVAFDIVCDNVGRDWKRLARELKVSEAKMDGIEEKYPRSLSERVRESLKVWKNAEKKNASVAGLVKALRTCRLNLVADLVEEAQESVSKSENMSPVLRDSTVSSSETP
binding [1]: binds
binding [2]: binds
binding [3]: binds
binding [4]: no binding
binding [5]: no binding

B5: HA-tagged FADD (protein, UniProt Q61160 1-205)
chain: B4 chain
binding [6]: binds
binding [7]: binds

B6: RIPK1 death domain (Flag-tagged RIPK1-DD and HA-tagged RIPK1-DD) (domain or fragment, UniProt Q60855 568-654)
chain: TDEHLNPIRENLGRQWKNCARKLGFTESQIDEIDHDYERDGLKEKVYQMLQKWLMREGTKGATVGKLAQALHQCCRIDLLNHLIRAS
binding [9]: binds
